According to PubChem BioAssay AID651820 (National Center for Advancing Translational Sciences (NCATS), 2012):
Screen size: about 340,000 compounds; about 12,000 (3.5%) were called active. Inconclusive results, whose numbers are uncertain, are shown with a selection of clear calls. Calls come from the whole dose curve; as a rule, active = well fitted inhibition curve with a large enough effect; inconclusive = small, poorly fitted or top-dose-only effect, or another doubt; inactive = no such curve, though single readings can be large or run the other way. No potency is given beside an inconclusive call; the fits are too rough.

Experiment: qHTS Assay for Inhibitors of Hepatitis C Virus (HCV)
Conditions: Huh7.5.1 HCVcc-Cre (HCVcc is cell-culture hepatitis C virus) infection, luciferase reporter, 44 h; activity change, negative = inhibition: at 41.8 µM (top of the series)
Outline: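 Antiviral activity was scored by luciferase reporter output from cells infected with HCVcc-Cre (~0.5 moi) in presence of compound, 44 h infection period, cells seeded 1,000/well 4 h prior.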
% is set by controls: 0 for no effect and ±100 for the full control effect; potency is the fitted concentration of half-maximal effect; tags give direction and shape of the fitted curve.

Q: For `CN1CC=C(c2c[nH]c3ccccc23)CC1`, which Potency is on record?
A: active: 6.31 µM

Q: Which Potency does the source give for `CCC(C)Nc1nc(N)c([N+](=O)[O-])c(NC2CCCCC2)n1` (centres undefined) here?
A: inconclusive [inhibitor, single point]

Q: Which Potency does the source give for `CCCn1c(O)c(N=Nc2ccc3ccccc3n2)c2ccccc21` here?
A: inconclusive [inhibitor, partial curve]

Q: With `c1ccc(C2Nc3ccccc3-c3nc4ccccc4n32)nc1` (centres undefined) as the molecule, how does the Potency read?
A: inconclusive [inhibitor, single point]

Q: Which Potency does the source give for `Cc1cc(N2CCC(C(N)=O)CC2)nc(-c2ccccc2)n1` here?
A: inconclusive [inhibitor, partial curve]

Q: Which Potency does the source give for `CCc1nc(N2CCN(C(=O)c3ccccc3)CC2)c2c3c(sc2n1)CCCC3` here?
A: inconclusive [inhibitor, single point]

Q: Which Potency does the source give for `N#Cc1ccc(CSc2nnc(-c3cccc(S(=O)(=O)N4CCCCC4)c3)o2)cc1` here?
A: inconclusive [inhibitor, single point]

Q: For `CC(=O)Nc1ccccc1NC(=O)C/C(C)=N/NC(=O)C(=O)N1CCCCC1`, which Potency is on record?
A: inactive

Q: With `O=C1c2cccc(OCC(=O)N3CCCc4ccccc43)c2CCN1Cc1ccccc1` as the molecule, how does the Potency read?
A: inconclusive [inhibitor, single point]

Q: With `COc1ccccc1CC(=O)Nc1ccon1` as the molecule, how does the Potency read?
A: inactive

Q: Which Potency does the source give for `CC(=O)Nc1cccc(NC(=O)CSc2nc(=O)n(CCN3CCOCC3)c3c2CCC3)c1` here?
A: inactive

Q: Which Potency does the source give for `O=C(Nc1ccccc1)OCc1cncs1` here?
A: inactive

Q: With `COc1ccc(N2CCOCC2)c(NC(=O)c2cccs2)c1` as the molecule, how does the Potency read?
A: inconclusive [inhibitor, partial curve]

Q: With `CCOC(=O)c1cc(-c2ccccc2)n(CCC(=O)N2CCN(c3ccccc3OC)CC2)c1C` as the molecule, how does the Potency read?
A: inconclusive [inhibitor, single point]

Q: Which Potency does the source give for `COc1ccc(N2CCCn3c2nc2c3c(=O)n(Cc3ccc(C)cc3)c(=O)n2C)c(OC)c1` here?
A: inconclusive [inhibitor, full curve, poor fit]

Q: For `COC(=O)CC1C(=O)NCCN1Cc1cn(-c2ccc(C)cc2)nc1-c1cccc(C)c1` (centres undefined), which Potency is on record?
A: inactive

Q: With `O=C(OCc1cc2ccccc2[nH]c1=O)c1ccco1` as the molecule, how does the Potency read?
A: inactive

Q: With `CN(C)c1ccc2c(c1)N=C(c1ccco1)OP2(=S)N1CCOCC1` (centres undefined) as the molecule, how does the Potency read?
A: inactive

Q: Which activity change, negative = inhibition does the source give for `Cc1c(C(=O)NCc2ccccc2CN2CCCC2)oc2ccccc12` here?
A: inconclusive: -62.8% [inhibitor]

Q: For `COc1cc(CCC(C)=O)ccc1OC(=O)c1c(F)cccc1Cl`, which Potency is on record?
A: active: 11.2 µM

Q: Which Potency does the source give for `CCOc1ccc(CN(C)C(=O)c2cccc(S(=O)(=O)N3CCCC3)c2)cc1OC` here?
A: inactive

Q: Which Potency does the source give for `COCCCNC(=S)NCCNc1nc2c(C)c(C)ccc2cc1C#N` here?
A: inconclusive [inhibitor, full curve]

Q: Which Potency does the source give for `CC(C)c1ccc(/C=N/NC(=O)C2CCCC2)cc1` here?
A: inactive

Q: Which Potency does the source give for `O=C(NCCc1cn2ccccc2n1)c1ccccc1F` here?
A: inactive

Q: Which Potency does the source give for `CC(=O)Nc1ccc(S(=O)(=O)N2CCN(C(=O)c3ncoc3-c3ccccc3F)CC2)cc1` here?
A: inconclusive [inhibitor, partial curve, poor fit]

Q: Which Potency does the source give for `CCSc1nnc(-c2ccccc2NC(=O)CC)c(=O)[nH]1` here?
A: inactive

Q: With `COc1cc(CNCc2c[nH]c3ccccc23)cc(OC)c1` as the molecule, how does the Potency read?
A: inconclusive [inhibitor, partial curve, poor fit]

Q: With `O=C(/C=C/c1cccs1)N1CCCCC1` as the molecule, how does the Potency read?
A: inactive

Q: Which Potency does the source give for `COc1cccc(/C=N/NC(=O)c2ccc(N(C)S(=O)(=O)c3ccccc3)cc2)c1OC` here?
A: inconclusive [inhibitor, partial curve]

Q: With `COC(=O)Cn1c(=NC(=O)c2cc(-c3cccs3)nc3ccccc23)sc2cc(S(N)(=O)=O)ccc21` as the molecule, how does the Potency read?
A: inconclusive [inhibitor, single point]

Q: For `CCC(C(=O)NC1CCCC1)N(Cc1ccccc1Cl)C(=O)c1snc(C(N)=O)c1N` (centres undefined), which Potency is on record?
A: inconclusive [inhibitor, partial curve]

Q: For `CCCCC(=O)Nc1ccc(NC(=O)c2ccc([N+](=O)[O-])cc2)cc1OC`, which Potency is on record?
A: inconclusive [inhibitor, full curve]

Q: For `O=C(/C=C/c1cccs1)c1cc(Br)ccc1OC(=O)N1CCOCC1`, which Potency is on record?
A: inconclusive [inhibitor, single point]

Q: Which Potency does the source give for `Cc1nc(NCc2cccnc2)c2c3c(sc2n1)CC(C)CC3` (centres undefined) here?
A: inconclusive [inhibitor, single point]

Q: With `Cc1cc(CN(C)C(=O)c2cc(COc3ccc(C)c(C)c3)on2)n[nH]1` as the molecule, how does the Potency read?
A: inconclusive [inhibitor, single point]

Q: With `CC(=O)Nc1ccc(NC(=O)C2C3C=CC(C3)C2C(=O)O)cc1` (centres undefined) as the molecule, how does the Potency read?
A: inactive

Q: Which Potency does the source give for `COc1ccccc1NC(=O)CC(c1ccc(OC(C)C)cc1)c1ccccc1OC` (centres undefined) here?
A: active: 11.2 µM

Q: With `O=[N+]([O-])c1ccc(S(=O)(=O)N/N=C/c2ccc3c(c2)OCO3)cc1` as the molecule, how does the Potency read?
A: inactive

Q: With `C/C(=N\NC(=O)c1nn(C)cc1Cl)c1ccncc1` as the molecule, how does the Potency read?
A: inactive

Q: With `CCOC(=O)c1c(NC(=O)C2Cc3ccccc3C(=O)O2)sc2c1CCCC2` (centres undefined) as the molecule, how does the Potency read?
A: inconclusive [inhibitor, full curve]

Q: With `CCc1ccc(/C=N/NC(=O)c2nnn(-c3nonc3N)c2C(C)C)cc1` as the molecule, how does the Potency read?
A: inconclusive [inhibitor, full curve]

Q: With `Cc1nnsc1NC(=O)OCc1ccc(C(F)(F)F)cc1` as the molecule, how does the Potency read?
A: inconclusive [inhibitor, partial curve]

Q: For `CN(CC(=O)Nc1cccc(F)c1)C(=O)c1ccc(COc2ccccc2)cc1`, which Potency is on record?
A: inconclusive [inhibitor, partial curve]

Q: With `CCOC(=O)COc1cccc(C2NC(=O)c3ccccc3O2)c1` (centres undefined) as the molecule, how does the Potency read?
A: inactive

Q: With `CSc1ccccc1C(=O)NCc1cccnc1` as the molecule, how does the Potency read?
A: inactive

Q: For `COc1ccc(-c2nnn(CC(=O)N(CC(=O)NCCC(C)C)Cc3cccs3)n2)cc1OC`, which Potency is on record?
A: inconclusive [inhibitor, full curve, poor fit]

Q: With `COCCCNc1nc2nonc2nc1NCCSC` as the molecule, how does the Potency read?
A: inconclusive [inhibitor, single point]

Q: For `O=C(COC(=O)c1ccccc1C(=O)c1ccccc1)NCCc1ccc(Cl)cc1Cl`, which Potency is on record?
A: inconclusive [inhibitor, partial curve]

Q: Which Potency does the source give for `O=C(Nc1ccccc1)c1ccc(-c2ccccc2Cl)o1` here?
A: inconclusive [inhibitor, single point]

Q: With `O=C(Nc1ccccc1)C1CCN(S(=O)(=O)c2cccs2)CC1` as the molecule, how does the Potency read?
A: inactive

Q: Which Potency does the source give for `COc1cc(-c2ccc3c(=O)c4ccccc4n(C)c3c2)cc(OC)c1OC` here?
A: inconclusive [inhibitor, single point]

Q: For `O=C(Nc1cccc2ccccc12)N1CCN(c2ccc(F)cc2)CC1`, which Potency is on record?
A: inactive

Q: With `c1ccc(CN2CCN(C(c3ccccc3)c3nnnn3Cc3ccccc3)CC2)cc1` (centres undefined) as the molecule, how does the Potency read?
A: inconclusive [inhibitor, single point]

Q: Which Potency does the source give for `CN(C)c1cc(Nc2cccc(O)c2)c([N+](=O)[O-])c2nonc12` here?
A: inconclusive [inhibitor, single point]

Q: Which Potency does the source give for `O=C(Nc1cccc(-c2ccc(F)cc2)c1)C1CCCN(C(=O)c2cscn2)C1` (centres undefined) here?
A: inconclusive [inhibitor, single point]

Q: Which Potency does the source give for `CC(/C=C/c1ccco1)=N/NC(=O)OC(C)(C)C` here?
A: inactive

Q: For `CCN1CCc2c(sc(NC(=O)c3ccc(S(=O)(=O)N4CCCCCC4)cc3)c2C(=O)NC)C1`, which Potency is on record?
A: inconclusive [inhibitor, full curve, poor fit]

Q: Which Potency does the source give for `CCC(=O)N(CC)C1=C(O)c2ccccc2C(=O)C1=O` here?
A: inconclusive [inhibitor, single point]

Q: Which Potency does the source give for `COc1c(C)cc(C(=O)C2CCCN(Cc3cccc(O)c3)C2)cc1C` (centres undefined) here?
A: active: 12.6 µM

Q: Which Potency does the source give for `COc1cc(CNC(C)C)c(Br)cc1OC1CCCC1` here?
A: inconclusive [inhibitor, partial curve]

Q: For `Cc1cc(C(=O)CSc2ccc(F)cc2)cc(C)c1OC(=S)N(C)C`, which Potency is on record?
A: inconclusive [inhibitor, single point]

Q: With `COc1ccc(NC(=O)Nc2c(C)n(C)n(-c3ccccc3)c2=O)c(OC)c1` as the molecule, how does the Potency read?
A: inactive

Q: Which Potency does the source give for `CCOc1ccc(-c2cn(-c3ccccc3OC)c(=S)[nH]2)cc1` here?
A: inconclusive [inhibitor, partial curve]

Q: Which Potency does the source give for `CC(=O)c1ccc(OCc2cc(=O)n3ccsc3n2)cc1` here?
A: inconclusive [inhibitor, single point]

Q: With `O=C(O)c1cn[nH]c1-n1cnnn1` as the molecule, how does the Potency read?
A: inactive

Q: Which Potency does the source give for `CN(C)c1ccc(-c2nn3c(-c4ccccc4Cl)nnc3s2)cc1` here?
A: inconclusive [inhibitor, partial curve]

Q: Which Potency does the source give for `FC(F)(F)c1cc(-c2cccs2)nc(NCc2ccco2)n1` here?
A: inconclusive [inhibitor, single point]

Q: For `COc1ccccc1-c1ccc(SCC(=O)NCc2ccc3c(c2)OCO3)nn1`, which Potency is on record?
A: inconclusive [inhibitor, single point]

Q: With `CCCOc1ccc([N+](=O)[O-])c(N)c1` as the molecule, how does the Potency read?
A: inactive

Q: For `COc1ccc(CC(=O)N(Cc2ccccc2)c2ccccc2)cc1S(=O)(=O)N1CCOCC1`, which Potency is on record?
A: inconclusive [inhibitor, single point]

Q: Which Potency does the source give for `COc1ccc(S(=O)(=O)c2cnc3ccccc3n2)cc1` here?
A: inactive

Q: With `C1=C(CCNCc2ccccc2)CCCC1` as the molecule, how does the Potency read?
A: inconclusive [inhibitor, single point]

Q: For `Cc1ccc(-n2nc3c(N4CCC(C(=O)NCc5cccc(F)c5)CC4)nnc(C)c3c2C)cc1`, which Potency is on record?
A: inactive

Q: With `NC1(C(=O)O)CCCc2ccc(N(CCCl)CCCl)cc21` (centres undefined) as the molecule, how does the Potency read?
A: inconclusive [inhibitor, partial curve]
